In US20250122271A1, “ANTI-DKK1 ANTIBODY, PHARMACEUTICAL COMPOSITION THEREOF, AND USE THEREOF” (SHANGHAI JUNSHI BIOSCIENCES CO., LTD., priority 2022, published 2025):

Biological target: T1, human DKK1 (Homo sapiens, UniProt O94907)
T1 construct: purchased Sino Biological 10170-H08H
T1 sequence (O94907 32-266): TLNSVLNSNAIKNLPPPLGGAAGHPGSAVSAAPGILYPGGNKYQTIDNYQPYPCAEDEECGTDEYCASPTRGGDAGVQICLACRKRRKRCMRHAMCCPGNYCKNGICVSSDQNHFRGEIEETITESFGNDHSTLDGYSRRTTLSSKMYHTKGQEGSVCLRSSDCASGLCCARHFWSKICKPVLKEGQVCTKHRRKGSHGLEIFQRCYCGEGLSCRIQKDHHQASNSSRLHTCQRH
Assay: Luciferase reporter gene assay in 293 TOP cells with Wnt3a and human DKK1 (recovery of Wnt signaling)
Assay type: cell-based
Conditions: humanized antibodies
Method: The cellular biological activity of the DKK1 antibodies was tested using target cells 293 TOP overexpressing LRP5/6 and comprising the luciferase reporter system and recombinant Wnt3a (R&D systems, cat #5036-WN), as well as human DKK1 (Sino Biological, cat #10170-H08H) protein. The target cells 293 TOP were placed into a 96-well flat-bottomed white plate (corning, cat #3917) at 50,000 cells per well for incubation overnight. The supernatant was then discarded, and the gradiently diluted antibodies to be tested were each added for pre-incubation at 37° C. for 0.5 h. After the pre-incubation was completed, the diluted Wnt3a (R&D systems, cat #5036-WN) and human DKK1 protein, at working concentrations of 0.05 μg/mL and 0.1 μg/mL, respectively, were added into the mixture containing the cells and antibody for co-incubation at 37° C. for 6-8 h. Finally, the luciferase substrate One-Lite (Vazyme, cat #DD1203-03-AB) was added and the chemiluminescence values of the hybridoma antibodies were measured. […]
The target cells 293 TOP were placed into a 96-well flat-bottomed white plate (corning, cat #3917) at 50,000 cells per well for incubation overnight. […] Finally, the luciferase substrate One-Lite (Vazyme, cat #DD1203-03-AB) was added and the chemiluminescence values of the chimeric antibodies were measured (FIGS. 5A-5C). […]

activity in the screening at cellular level: superior activity
B1: hu2: humanized antibody, VH/VL SEQ ID NO: 49/55, HC/LC SEQ ID NO: 79/85 (antibody)
heavy: EVQLLQSAAEVKRPGESLRISCKTSGYTFTEYTMHWVRQMPGKELEWMGVIDPSNGDTSYNQKFKGHVTISADKSSSTAYLQWSSLKASDAAMYYCSSTTGPWFASWGQGTLVTVSSASTKGPSVFPLAPCSRSTSESTAALGCLVKDYFPEPVTVSWNSGALTSGVHTFPAVLQSSGLYSLSSVVTVPSSSLGTKTYTCNVDHKPSNTKVDKRV[letters of human IgG4 Fc with S228P (EU numbers) omitted]
light: DIQMTQSPSSLSASVGDRVTITCRASQDISNYLNWYQQKPGKAPKLLIYYKSRLHSGVPSRFSGSGSGTDFTLTISSLQPEDFATYYCQQVHTLPPTFGQGTKLEIKRTVAAPSVFIFPPSDEQLKSGTASVVCLLNNFYPREAKVQWKVDNALQSGNSQESVTEQDSKDSTYSLSSTLTLSKADYEKHKVYACEVTHQGLSSPVTKSFNRGEC
